For 39 molecules, relative growth results are on record in the supplement of paper PMC9446081.

In all, about 39,000 compounds went through this assay and about 220 (0.56%) showed activity. This is one part of the list.
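Further: static incubation at 37 °C against the wild-type strain, values averaged over two biological replicates.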

For this experiment, the system named is Escherichia coli K-12 BW25113. In words: relative growth (OD600 normalised to plate interquartile mean) (fraction); higher = less growth inhibition, active = 0.2 or less. The settings on record: 50 µM; LB; incubation time: overnight (16-24 h).
For the molecule `COc1ccc(NC(=O)Nc2ccc3c(c2)C(=O)N([C@@H](C)CO)C[C@@H](C)[C@H](CN(C)C(=O)Cc2ccccc2)OCCCC[C@H](C)O3)cc1`, the relative growth was inactive: 0.982.

Turning to `CCCCOc1ccc(CC(=O)NO)cc1`, the relative growth is inactive: 0.857. Take `CCCC#Cc1ccc2c(c1)O[C@@H](CN(C)S(=O)(=O)c1cccc(OC)c1)[C@@H](C)CN([C@@H](C)CO)S2(=O)=O`: the relative growth was inactive: 1.03. As to `COc1ccc(-c2coc3cc(O)cc(OC)c3c2=O)cc1`, the relative growth was inactive: 0.962. As for `COc1cc(OC)cc(C(=O)OCCN2CCCN(CCOC(=O)c3cc(OC)cc(OC)c3)CC2)c1`, the relative growth is inactive: 0.981. Consider `C[C@H]1CN([C@@H](C)CO)C(=O)c2cccc(NC(=O)c3nc4ccccc4s3)c2O[C@@H]1CN(C)C(=O)Nc1ccc(F)cc1`, for which the relative growth was inactive: 0.987. For the molecule `Cc1ccc(S(=O)(=O)Nc2cccc3c2O[C@H](CN(C)S(=O)(=O)c2cn(C)cn2)[C@@H](C)CN([C@H](C)CO)C3=O)cc1`, the relative growth was inactive: 0.998. Turning to `COc1ccc(CN(C)C[C@H]2Oc3ccc(NS(=O)(=O)c4c(C)noc4C)cc3CC(=O)N([C@@H](C)CO)C[C@H]2C)cc1`, the relative growth is inactive: 0.993. In the case of `C[C@@H]1CN([C@@H](C)CO)C(=O)c2cc(NC(=O)CCC(F)(F)F)ccc2O[C@@H]1CN(C)Cc1ccc(-c2ccccc2)cc1`, the relative growth was inactive: 0.991. As to `CCCN(C)C[C@H]1OCCCC[C@H](C)Oc2ccc(NC(=O)CCC(F)(F)F)cc2C(=O)N([C@@H](C)CO)C[C@H]1C`, the relative growth was inactive: 0.997.

With `C[C@@H]1CN([C@H](C)CO)C(=O)c2cc(NC(=O)Nc3ccccc3)ccc2O[C@H]1CN(C)CC1CCCCC1`, the relative growth is inactive: 1. The figure for `C[C@@H]1CN([C@H](C)CO)C(=O)c2cccc(NC(=O)Nc3ccc4c(c3)OCO4)c2O[C@@H]1CN(C)Cc1ccc(Cl)c(Cl)c1` is inactive: 0.985. Consider `CCOC(=O)c1cn[nH]c1N`, for which the relative growth was inactive: 0.95. Consider `C[C@H]1CN([C@@H](C)CO)C(=O)Cc2cc(NC(=O)NC3CCCCC3)ccc2O[C@@H]1CN(C)C(=O)Nc1ccc(C(F)(F)F)cc1`, for which the relative growth is inactive: 1.03. As for `C[C@H]1CN([C@@H](C)CO)C(=O)Cc2cc(NC(=O)Cn3cnnn3)ccc2O[C@@H]1CN(C)Cc1ccc(C(=O)O)cc1`, the figure is inactive: 0.99; as for `CN(C)CCCNC(=O)C[C@@H]1CC[C@H]2[C@H](COc3ccc(NS(C)(=O)=O)cc3C(=O)N2C)O1`, inactive: 1.03; as for `O=c1c(O)c(-c2ccccc2)oc2cc(O)cc(O)c12`, inactive: 0.996.

For the molecule `Cc1noc(C)c1NC(=O)N[C@H]1C=C[C@H](CC(=O)NCCCN(C)C)O[C@H]1CO`, the relative growth was inactive: 0.981. `COc1ccc(S(=O)(=O)N2C[C@@H](O)COC[C@@H]3O[C@@H](CC(=O)N[C@H]4CCN(Cc5ccccc5)C4)CC[C@H]32)cc1`: the relative growth is inactive: 0.854. With `COc1ccc(S(=O)(=O)Nc2ccc3c(c2)C(=O)N([C@@H](C)CO)C[C@H](C)[C@H](CN(C)S(C)(=O)=O)OCCCC[C@@H](C)O3)cc1`, the relative growth was inactive: 0.983. As for `C[C@@H]1CN([C@H](C)CO)C(=O)c2cc(NS(C)(=O)=O)ccc2O[C@@H](C)CCCCO[C@@H]1CN(C)C(=O)CCCN(C)C`, the relative growth is inactive: 1.01. As to `COC(=O)N[C@H](C(=O)N1CC2(CC2)C[C@H]1c1nc(-c2ccc3c(c2)C(F)(F)c2cc(-c4ccc5nc([C@@H]6[C@H]7CC[C@H](C7)N6C(=O)[C@@H](NC(=O)OC)C(C)C)[nH]c5c4)ccc2-3)c[nH]1)C(C)C`, the relative growth was inactive: 1.02. With `C[C@H](CO)N1C[C@H](C)[C@@H](CN(C)C(=O)Nc2cccc(C(F)(F)F)c2)OCc2ccccc2-c2ccccc2C1=O`, the relative growth is inactive: 1.01. Consider `COc1ccc(C=CC(=O)Nc2ccccc2C(=O)O)cc1OC`, for which the relative growth is inactive: 0.907. Consider `CN(C)C(=O)c1ccc(-c2cccc(-c3nc(C(=O)NC4CCCCC4)cc4c3[C@@H](CCO)N([S@](=O)C(C)(C)C)C4)c2)cc1`, for which the relative growth is inactive: 0.984. In the case of `COc1ccc(NC(=O)N(C)C[C@H]2Oc3c(NC(=O)C4CCOCC4)cccc3C(=O)N([C@H](C)CO)C[C@@H]2C)cc1`, the relative growth was inactive: 1.04. The figure for `C[C@@H]1CCCCO[C@H](CN(C)C(=O)Nc2cccc3ccccc23)[C@@H](C)CN([C@H](C)CO)C(=O)c2cc(NC(=O)Nc3cccc4ccccc34)ccc2O1` is inactive: 0.948; for `CNC[C@@H]1OCCCC[C@@H](C)Oc2ccc(NC(=O)CCCN(C)C)cc2C(=O)N([C@H](C)CO)C[C@H]1C` it is inactive: 1; for `CCC(=O)N1CCC(C(=O)O)CC1` it is inactive: 1.02. With `CC(C)NC(=O)N(C)C[C@@H]1Oc2ccc(NC(=O)NC3CCCCC3)cc2CC(=O)N([C@@H](C)CO)C[C@H]1C`, the relative growth was inactive: 0.978. The figure for `C[C@H]1CN([C@@H](C)CO)C(=O)Cc2cc(NC(=O)Cn3cnnn3)ccc2O[C@@H]1CN(C)Cc1ccc2c(c1)OCO2` is inactive: 1.01; for `C[C@@H]1CN([C@@H](C)CO)C(=O)c2c(c3ccccc3n2C)-c2ccccc2CO[C@H]1CN(C)Cc1ccc2c(c1)OCO2` it is inactive: 1.01. The figure for `COc1ccc(NC(=O)N(C)C[C@H]2OCCCC[C@H](C)Oc3ccc(NC(=O)Cc4ccccc4)cc3C(=O)N([C@@H](C)CO)C[C@H]2C)cc1` is inactive: 0.997; for `CCNc1nc(=O)cc(F)[nH]1` it is inactive: 0.996; for `C[C@@H]1CN([C@H](C)CO)C(=O)c2cc(NC(=O)C3CCCCC3)ccc2O[C@@H](C)CCCCO[C@@H]1CN(C)C(=O)Nc1ccccc1` it is inactive: 1.02.

In the case of `C[C@H]1CCCCO[C@H](CN(C)S(=O)(=O)c2ccc(F)cc2)[C@@H](C)CN([C@@H](C)CO)C(=O)c2cc(NC(=O)Nc3cccc4ccccc34)ccc2O1`, the relative growth is inactive: 1. `C/C=C/c1ccc2c(c1)O[C@@H](CN(C)S(=O)(=O)c1ccc(C)cc1)[C@@H](C)CN([C@@H](C)CO)S2(=O)=O`: the relative growth is inactive: 1.03. As for `CC(C)NC(=O)Nc1ccc2c(c1)C(=O)N([C@H](C)CO)C[C@H](C)[C@@H](CN(C)C(=O)NC1CCCCC1)O2`, the figure is inactive: 0.996. On to `Cc1noc(C)c1NC(=O)Nc1ccc2c(c1)C(=O)N([C@H](C)CO)C[C@@H](C)[C@H](CN(C)Cc1ccc(C(F)(F)F)cc1)O2`, for which the relative growth was inactive: 0.989.
